Results from the supplement of paper PMC10338343.
± gives the standard deviation. Over roughly 3,700 sequences, “pre-steady-state target cleavage rate” has its median near 0.02; the highest 2% begin near 0.23. This is a selection; strong and weak results do not stand in their true shares.

Test system: MILI (PIWIL2) piRISC loaded with Kctd7 piRNA (26 nt)
Test: pre-steady-state target cleavage rate (min^-1); MIWI and MILI are mouse PIWI proteins and EfPiwi is from a freshwater sponge; tags in brackets are library labels; higher = faster piRNA-guided slicing of the target
Details: guide: Kctd7 piRNA 5'p-UGUUAAUCUCUCAGAGAAGGUGACAG; auxiliary factor: 500 nM mouse GTSF1
In short: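 Cleave-'n-Seq used a transcribed, DNA-blocked target RNA library at 0.1 nM and active affinity-purified piRISC with one synthetic guide at 1 nM, with or without 500 nM GTSF1 partner protein, in HEPES–potassium acetate buffer at 33 °C for 0–8 or 0–960 min. Uncleaved targets were sequenced and normalised to depth and to weakly complementary targets, and three trials were pooled with k3 capped at 0.0001 min^-1. The pre-steady-state cleavage rate was estimated by a burst-and-steady-state fit.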

Row | Sequence | pre-steady-state target cleavage rate
1 | UAGUGACAGUCCUUCUCUGAGAGAUAUAACA | 0.0573 ± 0.0087
2 | UAGUGACACACCUUCUCUGUGAGAUUAACA | 0.0505 ± 0.0056
3 | UAGUGAGUCACCUUCUCUGUGAGAUUAACA | 0.0632 ± 0.0071
4 | UAGUGACAGUGCUUUUCUGAGAGAUUAACA | 0.0398 ± 0.0063
5 | UAGUGACUACCUUCUCUGAGAGAUUAACA | 0.105 ± 0.0079
6 | UAGUGACUCUCCUUCUCAGAGAGAUUAACA | 0.0459 ± 0.0049
7 | UAGUGAGUCGCCUUCUCUGAGAGAUUAACA | 0.193 ± 0.021
8 | UAGUGACAGUGCUUCUCUCAGAGUUUAACA | 0.00367 ± 0.0028
9 | UAGUCUGUCACCUUCUCUGAGAGAUUAAUA | 0.118 ± 0.02
10 | UAGUGACAGACCUUGUCUGAGAGAUAAACA | 0.0053 ± 0.0042
11 | UAGUGACACACCUUCUCUGAGAGAUUAUCA | 0.121 ± 0.016
12 | UAGUCUGUCUCCUUGUCUGAGAGAUUAACA | 0.0885 ± 0.012
13 | UAGUGAGUCACCUUCUCUGAGAGAUUGACA | 0.208 ± 0.042
14 | UAGUGACUGACCUUCACUGAGAGAUUAACA | 0.129 ± 0.02
15 | UAGUGACAGUCCUUGACUGAGAGAUUAACA | 0.012 ± 0.0034
16 | UAGUGUGUCACCAACUCUGAGAGAUUAAGA | 0.0761 ± 0.016
17 | UAGUGACAGUCCAUCUCUGAGACAUUAACA | 0.00298 ± 0.0025
18 | UAGUCUGUGACCUUCUCUGAGAGAUUAUGA | 0.0293 ± 0.0083
19 | UAGUGUGUCACCUUCUCUGAGAGAAAAACA | 0.0632 ± 0.024
20 | UAGUCAGUCACCUUGUCUGAGAGAUUAACA | 0.109 ± 0.018
21 | UAGUGUGUCACCUUCUCAGAGAGAUUAUCA | 0.092 ± 0.022
22 | UAGUGUGUCACCUUCUCUGAGGGAUUAACA | 0.077 ± 0.0082
23 | UAGUGUGUCACCUUUUCUGAGAGAUUAACA | 0.249 ± 0.02
24 | UAGUGACUCAGCUUCUCUGACAGAUUAACA | 0.0133 ± 0.0041

Row | Sequence | pre-steady-state target cleavage rate
25 | UAGUGACAGUGGAUCUCUCACAGAUUAACA | < 0.0001
26 | UAGUGACAGUCCUUGUCUGACAGAUUAACA | 0.018 ± 0.0051
27 | UAGUGACACUGCUUCUCUGAGAGAUUAACA | 0.0787 ± 0.0078
28 | UAGUCUGUCUCCUUCUCUGAGAGAUUAAGA | 0.054 ± 0.012
29 | UAGUGACAGUGCUUUCUCUGAGAGAUUAACA | 0.0826 ± 0.0083
30 | UAGUGAGUCUCCUUGUCUGAGAGAUUAACA | 0.0445 ± 0.011
31 | UAGUCUGUCACCUUCUCUGCGAGAUUAACA | 0.109 ± 0.015
32 | UAGUGUGUCACCUUCUCUGACAGAUUAACA | 0.073 ± 0.008
33 | UAGUGAGACACCUUCUCUGAGUGAUUAACA | 0.0036 ± 0.0027
34 | UAGUGUGUCACCUUCUUUGAGAGAUUAACA | 0.229 ± 0.016
35 | UAGUGAGUGUGCUUCUCUGAGAGAUUAAGA | 0.0112 ± 0.0028
36 | UAGUGUGUCACCUUCAGUGAGAGAUUAUGA | 0.00477 ± 0.0036
37 | UAGUCUGUGACCUUCUCAGAGAGAUUAACA | 0.0991 ± 0.0093
38 | UAGUGUGUCACCAACUCUGAGAGAUUAUGA | 0.022 ± 0.0072
39 | UAGUGACUCACCUUCUGUGAGAGAUAAACA | 0.0306 ± 0.0065
40 | UAGUCUGUCACCUUCUCUCAGAGAUUAAGA | 0.00947 ± 0.0051
41 | UAGUGUGUCACCUUCUCUGAGAGAUUAAACA | 0.214 ± 0.029
42 | UAGUGUGUCACCUAGACUGAGAGAUUAACA | 0.0513 ± 0.0065
43 | UAGUGACACACCAUCUCUGAGAGAUUUACA | 0.0898 ± 0.017
44 | UAGUGUGUCAGCUUCUCUGAGAGAUUAUCA | 0.108 ± 0.016
45 | UAGUCUGUCACCUUCACUGAGAGAUUAACA | 0.14 ± 0.012
46 | UAGUGACUCACCUUCUCUGUGAGAUUAUCA | 0.00767 ± 0.005
47 | UAGUGACUCACCAUCUCAGAGAGAUUAACA | 0.0451 ± 0.0063
48 | UAGUGACACACCUACUCUGAGAGAUUUACA | 0.0755 ± 0.018

Row | Sequence | pre-steady-state target cleavage rate
49 | UAGUGACUCACCUUCUCUGACAGUUUAACA | 0.0236 ± 0.008
50 | UAGUCUGAGUCCUUCUCUGAGAGAUUUUGA | 0.00489 ± 0.0029
51 | UAGUGUGUCACCUUCUCAGAGAGUUUAACA | 0.143 ± 0.041
52 | UAGUGACACACCUUCUCUGAGAGAUUAUACA | 0.108 ± 0.032
53 | UAGUGACUCACGUUCUCUGAGAGAUUUACA | 0.0554 ± 0.015
54 | UAGUGACAGUCCCUUCUCUGAGAGAUUAACA | 0.187 ± 0.017
55 | UAGUGAGUCUCCUUCUCUGAGAGAUAAACA | 0.00873 ± 0.0047
56 | UAGUGUGUCACCUUCUCUGUAGAGAUUAACA | 0.0119 ± 0.0041
57 | UAGUCUGUCACCUUUUCUGAGAGAUUAACA | 0.209 ± 0.015
58 | UAGUGACUCACCUUCUCAGAGAGAUUAACA | 0.0883 ± 0.007
59 | UAGUGAGUCACCUUCUCUGAGACGAUUAACA | 0.0798 ± 0.012
60 | UAGUGAGUCACCUUCUCUGAGAGAUUGAACA | 0.143 ± 0.023
61 | UAGUGUGUCACCUUCUCUGUGAGAUUAUGA | 0.0178 ± 0.0076
62 | UAGUGACAGUGGUUGUGUGAGAGAUUAACA | < 0.0001
63 | UAGUGUGUCACCUUCUCUGAGAGUUAACA | 0.194 ± 0.055
64 | UAGUGUGUCACGAUCUCUGAGAGAUUAACA | 0.116 ± 0.0092
65 | UAGUGAGUCACGAUCUCUGAGAGAUUAUGA | 0.00946 ± 0.0037
66 | UAGUCUGUCACCUUCUCUGAGAGACUUAACA | 0.145 ± 0.024
67 | UAGUGACAGAGCUUCUCUGAGAGAUAAACA | 0.0214 ± 0.0056
68 | UAGUGACAGUCCGUCUCUGAGAGAUUAACA | 0.0557 ± 0.0066
69 | UAGUCUGUACCUUCUCUGAGAGAUUAACA | 0.171 ± 0.011
70 | UAGUGACACUCCUUCUCAGAGAGAUUAACA | 0.0439 ± 0.0078
71 | UAGUCAGUCACCUUCUCUGAGAGAUUAUGA | 0.0793 ± 0.02
72 | UAGUCUGUCACCUUCACUGAGAGAAUAACA | 0.0651 ± 0.023
